Data: paper PMC7819943, “Rice protein-binding microarrays: a tool to detect cis-acting elements near promoter regions in rice”
This is one part of the list.

Target: T1, OsWOX13 (Oryza sativa, UniProt Q5QMM3 1-267)
T1 sequence: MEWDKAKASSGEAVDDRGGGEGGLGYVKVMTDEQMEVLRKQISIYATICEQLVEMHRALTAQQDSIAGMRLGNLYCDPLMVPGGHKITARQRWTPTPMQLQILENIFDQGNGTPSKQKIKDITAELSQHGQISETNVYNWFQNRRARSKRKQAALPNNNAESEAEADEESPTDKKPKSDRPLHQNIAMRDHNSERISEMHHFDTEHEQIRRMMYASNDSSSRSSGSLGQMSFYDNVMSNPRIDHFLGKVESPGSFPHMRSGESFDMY
Experiment: protein-binding microarray (RPBM); PBS, 2% BSA, 51.3 ng/ul salmon testes DNA, 50 uM zinc acetate, 200 nM TF, 25 C, 1 h; high values mean tight binding
Conditions: protein: recombinant; tags: N-terminal polyhistidine and DsRed monomer fusion (pET32a); label: CyDye5-dUTP incorporated in the synthesized complementary strand; 3' TTTTT single-stranded linker to array surface; dsDNA, one strand shown
Method in brief: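 A custom Agilent array was converted to double-stranded form by primer extension with Cy5-dUTP and blocked with 2% BSA. Protein at 200 nM in PBS with 2% BSA, salmon testes DNA and 50 µM zinc acetate was applied for 1 h at 25 °C, followed by washing. The proteins were polyhistidine–DsRed N-terminal fusions of transcription factors, expressed in E. coli BL21-CodonPlus and Ni–NTA-purified. The binding signal is per-feature fluorescence intensity (arbitrary units) from an Axon 4000B scanner.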

| Sequence | binding signal |
| --- | --- |
| ATGTGAGAAATAAATTAGCGAGCAAATTTTATGGACTTGTCGGAGTCACCTAGTGCAG | 8500 fluorescence intensity (a.u.) |
| CCTCTTGTTAATCCCGCAAATTAGCTCTTCAAATTAGGAACGGAGTCACCTAGTGCAG | 7800 fluorescence intensity (a.u.) |
| CCGCTAACTTATCCGTTACCTCGCTCCCATCCCGCTAAACCGGAGTCACCTAGTGCAG | 4280 fluorescence intensity (a.u.) |
| GATTAACACGACATTAATAGGTACAAATTAAAACACTTACCGGAGTCACCTAGTGCAG | 15400 fluorescence intensity (a.u.) |
| ACACTTCAATCAACCACCCAACTCGCACCGCACCGGTTTTCGGAGTCACCTAGTGCAG | 14400 fluorescence intensity (a.u.) |
| TGTCTACGTTTTCCAGATGATTGGTATGAAATTAGTTGTGCGGAGTCACCTAGTGCAG | 10800 fluorescence intensity (a.u.) |
| TCTCAATAATTAATTATGCTCTCTTAAATTTTCTTGAAATCGGAGTCACCTAGTGCAG | 15400 fluorescence intensity (a.u.) |
| ACTTGGTGACGAATCAATCGAAACCCAATTTATCAAATCCCGGAGTCACCTAGTGCAG | 4480 fluorescence intensity (a.u.) |
| AGTCAAATTGCACTGGTTTTAATAATTCTGAGAGTCATCCCGGAGTCACCTAGTGCAG | 5390 fluorescence intensity (a.u.) |
| TAAAATTGACGATATCTTGGGCAAAATCACTGGGCATGGCCGGAGTCACCTAGTGCAG | 32200 fluorescence intensity (a.u.) |
| ACACTAGATCTAGACTGATTTTGTGCATTATAATGTTTTGCGGAGTCACCTAGTGCAG | 6580 fluorescence intensity (a.u.) |
| TTCGTTCATCATCAATCAAAACATGGGACTATAAGGATTTCGGAGTCACCTAGTGCAG | 7300 fluorescence intensity (a.u.) |
| TGTATTGCTAAATTATAGTGTAAATTTTGGTTCCTCGTCCCGGAGTCACCTAGTGCAG | 6110 fluorescence intensity (a.u.) |
| TTCAGTTAATTGTTCGATCGATCGATCGATCAGCTGCTGCCGGAGTCACCTAGTGCAG | 17000 fluorescence intensity (a.u.) |
| TGTATTCATCATCTAAATTATTGTTCATAAACCTATAGGCCGGAGTCACCTAGTGCAG | 3420 fluorescence intensity (a.u.) |
| AAATGAATAATTACTTGGGTTGATGTTGACGAGCATGCCGCGGAGTCACCTAGTGCAG | 6130 fluorescence intensity (a.u.) |
| AAGCCAAATTAAACAACATGATATATCTGTGTATTGCCATCGGAGTCACCTAGTGCAG | 6490 fluorescence intensity (a.u.) |
| ATTGTAATGAAGTATTGATAGGGACTCTAATCAGGCCTCCCGGAGTCACCTAGTGCAG | 11000 fluorescence intensity (a.u.) |
| TGCCCTTACCTGTGGTTTCTCCCGCGGCGGCGGGGTGGAGCGGAGTCACCTAGTGCAG | 65500 fluorescence intensity (a.u.) |
| ACAGAAATTAGATGGAGATAAAGATTTTCGTGACACGTTTCGGAGTCACCTAGTGCAG | 7480 fluorescence intensity (a.u.) |
| CATATACATACTAATTAAACCTAAATACGTAGCCTGATCACGGAGTCACCTAGTGCAG | 8710 fluorescence intensity (a.u.) |

| Sequence | binding signal |
| --- | --- |
| AAAATAACTGACAGTGACAGTGTCACCTGTTGATTCTGACCGGAGTCACCTAGTGCAG | 25900 fluorescence intensity (a.u.) |
| ATGTAATTTATACAAGTGGGTATTCATTTAAATTGGTTATCGGAGTCACCTAGTGCAG | 25300 fluorescence intensity (a.u.) |
| ACTGATAACAAAATAATTTATAGGTAAAACTTTTAATATGCGGAGTCACCTAGTGCAG | 7340 fluorescence intensity (a.u.) |
| CTCATAGTCATAGTTACTGATTTGTTTGCTCATAGTCATACGGAGTCACCTAGTGCAG | 4510 fluorescence intensity (a.u.) |
| AGAGTGGAATTGGCAATTCCCAAATCGAAACGCCGCTGCGCGGAGTCACCTAGTGCAG | 8410 fluorescence intensity (a.u.) |
| CTAATACTTAATTAATCACGTGTTAAAAGGCCGCTCCATTCGGAGTCACCTAGTGCAG | 18700 fluorescence intensity (a.u.) |
| TCCTTGACGAGAAGGGCACCATCGTGATCAATCATCTGTCCGGAGTCACCTAGTGCAG | 13900 fluorescence intensity (a.u.) |
| ACACCCTCATTACTATATTATTAATTATTGTTCCTCAATGCGGAGTCACCTAGTGCAG | 5020 fluorescence intensity (a.u.) |
| GCAATGGATCATGCTATCCAATCAATTTTCATATGTTCTTCGGAGTCACCTAGTGCAG | 3400 fluorescence intensity (a.u.) |
| CCAAATTTGATTGGCATCTCAAAACTGTCGTATAATTGGGCGGAGTCACCTAGTGCAG | 65500 fluorescence intensity (a.u.) |
| CCTAATTACGCCATGATTTGACAATATGATGCTACAGTAACGGAGTCACCTAGTGCAG | 36900 fluorescence intensity (a.u.) |
| AGCAAGTGATTTGTCCTCCTTACATTGTTAGTACTGTTTGCGGAGTCACCTAGTGCAG | 14000 fluorescence intensity (a.u.) |
| CCACAGATTGTTAGCTTAGCGTTTGGTTACTTGCTTCAGTCGGAGTCACCTAGTGCAG | 4170 fluorescence intensity (a.u.) |
| CGGCTGATTGACCGGGTGGGGCGCCGGCGACCGCCACCACCGGAGTCACCTAGTGCAG | 33400 fluorescence intensity (a.u.) |
| AGACTAATTGAAGCTAGGATATATGATGCAAGGAGAGAGGCGGAGTCACCTAGTGCAG | 29500 fluorescence intensity (a.u.) |
| TATATATATATATATATATATAATTCGTTTGTGGTACATACGGAGTCACCTAGTGCAG | 16100 fluorescence intensity (a.u.) |
| TTGATTGATGTCATTTAAATTATCATTGGTCTTGGTGTATCGGAGTCACCTAGTGCAG | 41100 fluorescence intensity (a.u.) |
| TTGATTAGTAGTAGTGGAGTACTTAGTAACCGGCCGGTTTCGGAGTCACCTAGTGCAG | 8000 fluorescence intensity (a.u.) |
| AAAAGCAAACATGATTTGTACTTGTGATTTCGAGTTCTCACGGAGTCACCTAGTGCAG | 4760 fluorescence intensity (a.u.) |
| GTTGAACTTATTCCAATCAAGGATCACGCATTCACGTTCACGGAGTCACCTAGTGCAG | 14100 fluorescence intensity (a.u.) |
| AAGTTAACTTTGATCTGAATTGAATATATACTCAGTGAAGCGGAGTCACCTAGTGCAG | 9560 fluorescence intensity (a.u.) |
